Measured values published in patent US9739779B2, “Methods of screening for Janus kinase 3 interacting compounds” (priority 2013, dated 2017).

T1: P-Villin (Homo sapiens, UniProt P09327)
T1 construct: made in house; host or cells: E. coli TKX1 (pGEX2T vector)
T1 sequence (P09327 1-827): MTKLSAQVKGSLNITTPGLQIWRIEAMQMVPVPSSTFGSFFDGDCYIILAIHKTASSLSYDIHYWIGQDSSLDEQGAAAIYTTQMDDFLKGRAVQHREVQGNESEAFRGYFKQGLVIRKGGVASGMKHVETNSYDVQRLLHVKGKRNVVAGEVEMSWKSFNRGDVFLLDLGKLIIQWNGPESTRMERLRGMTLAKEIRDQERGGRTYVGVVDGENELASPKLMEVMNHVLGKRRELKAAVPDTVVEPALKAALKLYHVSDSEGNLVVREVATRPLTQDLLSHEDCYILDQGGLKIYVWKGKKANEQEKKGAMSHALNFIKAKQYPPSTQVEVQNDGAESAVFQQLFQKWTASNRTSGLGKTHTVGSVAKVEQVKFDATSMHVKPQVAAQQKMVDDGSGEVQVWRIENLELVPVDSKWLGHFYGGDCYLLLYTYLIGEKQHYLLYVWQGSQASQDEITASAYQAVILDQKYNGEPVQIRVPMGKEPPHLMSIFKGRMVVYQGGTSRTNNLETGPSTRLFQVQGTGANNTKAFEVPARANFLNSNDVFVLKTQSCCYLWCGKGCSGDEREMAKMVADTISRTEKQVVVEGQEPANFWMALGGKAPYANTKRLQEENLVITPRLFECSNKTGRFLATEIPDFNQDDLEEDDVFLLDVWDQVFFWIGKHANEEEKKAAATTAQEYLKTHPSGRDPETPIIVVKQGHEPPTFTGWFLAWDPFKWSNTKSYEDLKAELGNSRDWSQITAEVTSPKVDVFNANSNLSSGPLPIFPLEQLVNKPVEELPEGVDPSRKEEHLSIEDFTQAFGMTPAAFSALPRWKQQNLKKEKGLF

B1: […]: GST-truncated Jak3 lacking JH1-JH4 (SEQ ID NO. 10); contains the FERM domain alone (protein)
chain: [no letters for about 200 residues]SDLVPRGSPNSMAPPSEETPLIPQRSCSLSSSEAGALHVLLPPRGPGPPQRLSFSFGDYLAEDLCVRAAKACGILPVYHSLFALATEDFSCWFPPSHIFCIEDVDTQVLVYRLRFYFPDWFGLETCHRFGLRKDLTSAILDLHVLEHLFAQHRSDLVSGRLPVGLSMKEQGEFLSLAVLDLAQMAREQAQRPGELLKTVSYKACLPPSLRDVIQGQNFVTRRRIRRTVVLALRRVVACQADRYALMAKYILDLERLHPAATTETFRVLPGAQEEPGLLRVAG
modifications: amino acid sequence of Glutathione S-transferase-truncated Janus Kinase 3 fusion protein
notes: contains the FERM domain alone
B2: Jak-V484: GST-truncated Jak3 fusion protein lacking the JH1 and JH2 domains (SEQ ID NO. 9) (protein)
chain: [no letters for about 200 residues]SDLVPRGSPNSMAPPSEETPLIPQRSCSLSSSEAGALHVLLPPRGPGPPQRLSFSFGDYLAEDLCVRAAKACGILPVYHSLFALATEDFSCWFPPSHIFCIEDVDTQVLVYRLRFYFPDWFGLETCHRFGLRKDLTSAILDLHVLEHLFAQHRSDLVSGRLPVGLSMKEQGEFLSLAVLDLAQMAREQAQRPGELLKTVSYKACLPPSLRDVIQGQNFVTRRRIRRTVVLALRRVVACQADRYALMAKYILDLERLHPAATTETFRVGLPGAQEEPGLLRVAGDNGISWSSGDQELFQTFCDFPEIVDVSIKQAPRVGPAGEHRLVTVTRMDGHILEAEFPGLPEALSFVALVDGYFRLICDSRHYFCKEVAPPRLLEEEAELCHGPITLDFAIHKLKAAGSLPGTYILRRSPQDYDSFLLTACVQTPLGPDYKGCLIRQDPSGAFSLVGLSQPHRSLRELLAACWNSGLRVDGAALNLTSCCAPRPKEKSNLIVRRGCTPAPAPG
modifications: amino acid sequence of Glutathione S-transferase-truncated Janus Kinase 3 fusion protein
B3: […]: GST-Jak3 fusion protein lacking the JH1 domain (SEQ ID NO. 8) (protein)
chain: [no letters for about 200 residues]SDLVPRGSPNSMAPPSEETPLIPQRSCSLSSSEAGALHVLLPPRGPGPPQRLSFSFGDYLAEDLCVRAAKACGILPVYHSLFALATEDFSCWFPPSHIFCIEDVDTQVLVYRLRFYFPDWFGLETCHRFGLRKDLTSAILDLHVLEHLFAQHRSDLVSGRLPVGLSMKEQGEFLSLAVLDLAQMAREQAQRPGELLKTVSYKACLPPSLRDVIQGQNFVTRRRIRRTVVLALRRVVACQADRYALMAKYILDLERLHPAATTETFRVGLPGAQEEPGLLRVAGDNGISWSSGDQELFQTFCDFPEIVDVSIKQAPRVGPAGEHRLVTVTRMDGHILEAEFPGLPEALSFVALVDGYFRLICDSRHYFCKEVAPPRLLEEEAELCHGPITLDFAIHKLKAAGSLPGTYILRRSPQDYDSFLLTACVQTPLGPDYKGCLIRQDPSGAFSLVGLSQPHRSLRELLAACWNSGLRVDGAALNLTSCCAPRPKEKSNLIVVRRGCTPAPAPGCSPSCCALTQLSFHTIPTDSLEWHENLGHGSFTKIFRGRRREVVDGETHDSEVLLKVMDSRHRNCMESFLEAASLMSQVSYPHLVLLHGVCMAGDSIMVQEFVYLGAIDMYLRKRGHLVSASWKLQVTKQLAYALNYLEDKGLPHGNVSARKVLLAREGGDGNPPFIKLSDPGVSPTVLSLEMLTDRIPWVAPECLQEAQTLCLEADKWGFGATTWEVFSGGPAHITSLEPAKKLKFYEDQGQLPALKWTELAGLITQCMAYDPGRRPSFRAILRDLNGLITSDYELLSDPPGIPSPRDELCG
modifications: amino acid sequence of Glutathione S-Transferase-truncated Janus Kinase 3 fusion protein
B4: P-Jak-V484: phosphorylated GST-truncated Jak3 fusion protein lacking the JH1 and JH2 domains (SEQ ID NO: 13) (protein)
chain: [no letters for about 200 residues]SDLVPRGSPNSMAPPSEETPLIPQRSCSLSSSEAGALHVLLPPRGPGPPQRLSFSFGDYLAEDLCVRAAKACGILPVYHSLFALATEDFSCWFPPSHIFCIEDVDTQVLVYRLRFYFPDWFGLETCHRFGLRKDLTSAILDLHVLEHLFAQHRSDLVSGRLPVGLSMKEQGEFLSLAVLDLAQMAREQAQRPGELLKTVSYKACLPPSLRDVIQGQNFVTRRRIRRTVVLALRRVVACQADRYALMAKYILDLERLHPAATTETFRVGLPGAQEEPGLLRVAGDNGISWSSGDQELFQTFCDFPEIVDVSIKQAPRVGPAGEHRLVTVTRMDGHILEAEFPGLPEALSFVALVDGYFRLICDSRHYFCKEVAPPRLLEEEAELCHGPITLDFAIHKLKAAGSLPGTYILRRSPQDYDSFLLTACVQTPLGPDYKGCLIRQDPSGAFSLVGLSQPHRSLRELLAACWNSGLRVDGAALNLTSCCAPRPKEKSNLIVRRGCTPAPAPG
modifications: phosphorylated; amino acid sequence of Glutathione S-transferase-Phosphorylated truncated Janus Kinase 3 fusion protein

Molecular target: T1, P-Villin
Assay: Multiplate ELISA binding of GST-Jak3 and truncated Jak3 fusion proteins to P-Villin
Conditions: for level of binding to P-Villin: FIG. 8A, GST-alone control subtracted
Procedure: Absorbance values for wells containing P-Villin contacted with GST alone were used as control, and data presented on the ordinate axis represent absorbance values after subtraction of control values.
To determine the ability of Jak3 to interact with natural compounds including biomolecules, binding studies were performed in a multiplate using the cytoskeletal protein, Villin, known in the art to be a substrate for P-Jak3. Multiplates pre-coated with P-Villin were contacted with increasing concentrations of GST-P-Jak3 fusion protein (test samples) or GST alone (control sample). Binding levels were measured using GST antibody as the primary binding partner, horse radish peroxidase conjugated antibody as the secondary binding partner and 3,3′,5,5′-tetramethylbenzidine as the colorimetric substrate. Raw absorbance data for the control samples were subtracted from the absorbance for the test samples to obtain the corrected absorbance values.
To determine whether the kinase domains of Jak3 are critical for Villin binding, recombinant GST-truncated-Jak3 fusion proteins shown in FIGS. 2C-2E were expressed in BL21 (for non-phosphorylated proteins) or TKX1 (for phosphorylated proteins) cells, and purified. Multiplates pre-coated with P-Villin were contacted with these GST-tagged recombinant truncated-Jak3 or with GST-tagged recombinant WT-Jak3, and binding measured as described supra.

Molecule | level of binding to P-Villin | Kd (plates pre-coated with P-Villin, read-out: dissociation constant (Kd)) [nM]
B1 | approximately the same level as P-WT-Jak3 | 40
B2 | relatively lower level of binding | 
B3 | relatively lower level of binding | 
B4 | approximately the same level as P-WT-Jak3 and Jak3-G257 | 
